Several values for one entry are separate records, joined by “and”; a condition that tells them apart may be missing. Equal values may be shown once. About 230 (0.21%) of roughly 110,000 compounds showed an effect of 50% or more. Some of the results follow.
Each compound was assayed against DPAP1 (Plasmodium falciparum, UniProt Q8IIJ9) (assay: primary screen, percent inhibition; read by cleavage of a fluorogenic dipeptide substrate; higher = more effect of the substance).
Design: species or system P. falciparum D10 trophozoite lysates; single well
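Note: 30 min substrate incubation versus DMSO and 10 µM JCP410 controls.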

Sequence of DPAP1 (Q8IIJ9 whole entry, looked up): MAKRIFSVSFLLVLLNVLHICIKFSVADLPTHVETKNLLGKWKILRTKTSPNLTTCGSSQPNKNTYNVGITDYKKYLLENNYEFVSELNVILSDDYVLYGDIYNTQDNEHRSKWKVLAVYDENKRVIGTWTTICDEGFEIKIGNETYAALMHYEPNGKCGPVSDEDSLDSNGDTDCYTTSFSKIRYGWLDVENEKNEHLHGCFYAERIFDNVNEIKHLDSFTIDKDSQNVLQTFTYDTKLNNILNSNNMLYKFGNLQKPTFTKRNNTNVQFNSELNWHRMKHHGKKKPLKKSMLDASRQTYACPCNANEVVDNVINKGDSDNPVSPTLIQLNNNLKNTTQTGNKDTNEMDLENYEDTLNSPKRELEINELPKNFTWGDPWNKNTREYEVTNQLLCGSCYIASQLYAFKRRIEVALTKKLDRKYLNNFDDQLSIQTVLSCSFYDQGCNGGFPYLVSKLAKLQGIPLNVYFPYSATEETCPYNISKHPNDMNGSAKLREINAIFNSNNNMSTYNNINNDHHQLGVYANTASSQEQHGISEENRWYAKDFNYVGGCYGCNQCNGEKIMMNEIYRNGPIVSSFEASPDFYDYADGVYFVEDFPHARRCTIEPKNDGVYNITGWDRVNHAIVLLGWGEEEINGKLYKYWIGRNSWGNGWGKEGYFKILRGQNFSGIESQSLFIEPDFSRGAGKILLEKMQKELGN

Compound	% Inhibition @ 10 uM
CC1SC2(C(=O)Nc3ccccc32)N(c2ccc3ccccc3c2)C1=O (centres unmarked)	-6.62%
Nc1cccnc1N1CCOCC1	1.12%
COc1ccc(C2CC(=O)c3cnc4c(-c5ccc(Cl)cc5)c(C)nn4c3C2)cc1 (centres unmarked)	2.31%
Cc1ccc(CNCCSc2nnnn2-c2ccccc2)s1	-4.71%
COc1cc(OC)cc(C(=O)Nc2ccc(S(=O)(=O)NC(C)=O)cc2)c1	1.15%
CN(Cc1ccco1)C1CCCCC1NS(=O)(=O)c1ccccc1 (centres unmarked)	-4.19%
CC(=O)c1cc(-c2ccccc2)n(CCC(=O)NCc2ccc3c(c2)OCO3)c1C	-1.88%
CC(=O)N1CCN(C2=NC(=O)/C(=C/c3ccccc3OCc3ccccc3)S2)CC1	0.487%
CC1CCc2cc(F)ccc2N1C(=O)Nc1ccccc1 (centres unmarked)	-8.44%
COc1ccc(S(=O)(=O)Cc2ccc(C(=O)N3CCC4(CC3)OCCO4)o2)cc1	-1.28%
Cc1cccc(C(=O)NCc2cccnc2)c1	-8.76%
CCOC(=O)N1CCC(NC(=O)c2cc(C)nc3c2c(C)nn3-c2ccccc2)CC1	-4.97%
Cc1ccc(NC(=O)NC(C)c2ccc(C)cc2)cc1 (centres unmarked)	14.1%
CCN1C(=S)NC2CC1(C)Oc1ccc(C(=O)OC)cc12 (centres unmarked)	-8.78%
COc1ccc(NC(=N)Nc2nc(O)cc(CSc3nc4ccccc4s3)n2)cc1	6.98%
OC1CCN(Cc2ccc(Cl)cc2Cl)C1 (centres unmarked)	-0.292%
CCN(CC)CCN1C(=O)C(O)=C(C(=O)c2ccc(Cl)cc2)C1c1ccc(C)cc1 (centres unmarked)	41.4%
CCN1C(=O)/C(=C\c2cc(C)n(-c3cc(C)cc(C)c3)c2C)C(C(=O)OC)=C1C	-1.81%
N#CC1=C(N)Oc2nc(O)nc(O)c2C1c1cccc2ccccc12 (centres unmarked)	-2.46%
C#CCN1C(=O)C(O)(CC(=O)c2ccc(OC)c(OC)c2)c2ccccc21 (centres unmarked)	-0.941%
O=C(Cc1ccccc1)Nc1ccccc1F	5.29%
Cc1cc(C(=O)CSc2n[nH]c(N)n2)c(C)n1-c1ccc(F)cc1	-6.74%
COc1cccc2cc(C(=O)NCCOC34CC5CC(CC(C5)C3)C4)c(=O)oc12	0.503%
CCC[C@H](NC(=O)OCc1ccccc1)C(=O)c1noc(C(=O)NCc2ccc(-c3ccccc3)cc2)n1	19.1%
C=Cc1ccc(Cn2c(C(=O)O)c(CNCc3ccc(OCC)c(OC)c3)c3ccccc32)cc1	2%

Compound	% Inhibition @ 10 uM
O=C(NC1CCC(NC(=O)c2ccco2)CC1)c1ccco1 (centres unmarked)	-7.98%
CCC1CCc2c(sc(NC(=O)c3cnccn3)c2C#N)C1 (centres unmarked)	-1.19%
COc1ccc(Br)cc1CNCCc1c[nH]c2ccccc12	-3.49%
O=C1c2ccccc2-c2nnc(-c3cccc(Br)c3)cc21	-0.736%
Cc1ccc(-c2cc(C(=O)NCc3cccnc3)c3ccccc3n2)cc1	-4.01%
COc1ccc(S(=O)(=O)N2CCN(c3ncc(C(F)(F)F)cc3Cl)CC2)cc1	6.17%
COCCCNC(=O)[C@H](Cc1c[nH]c2ccccc12)NC(=O)OCc1ccccc1	-2.14%
CCOC(=O)N1CCN(C(C)Cc2cccc(C(F)(F)F)c2)CC1 (centres unmarked)	-0.0648%
Cc1cc2nc(NC3=NCN(CCN4CCOCC4)CN3)nc(C)c2cc1C	-0.958%
CCC(C)(C)c1ccc(OCC(=O)Nc2ccc(C(=O)O)cc2)cc1	-5.57%
COc1ccc(OC)c(NC(=O)CN(c2ccc(C)c(Cl)c2)S(C)(=O)=O)c1	5.25%
O=C(CCCn1c(=O)c2sccc2n(Cc2ccccc2)c1=O)NCc1ccccc1	-3.12%
O=C(O)CCCCCNC(=O)c1cc2ccccc2cc1O	-1.06%
CCCCOC(=O)C(C)Nc1nnc(S)nc1O (centres unmarked)	4.66%
Cc1cc(C)c2nc(N3CCC(C(=O)NCCCN4CCC(N5CCCCC5)CC4)CC3)sc2c1	6.46%
CCOc1ccccc1C(=O)Nc1nc(C)c(C(=O)N(C)C)s1	-1.52%
CNC(=O)CCCCn1c(=S)[nH]c2c([nH]c3ccc(OC)cc32)c1=O	2.74%
Cc1cc(O)nc(SCC(=O)Nc2ccc(Cl)c(Cl)c2)n1	-8.41%
O=C(COCc1cc(-c2cccs2)on1)NCc1ccc2c(c1)OCO2	-1.86%
Sc1nnc2c(n1)[nH]c1ccccc12	38%
NC(=O)C(Cc1ccccc1)N1C(=O)C2C3C=CC(C3)C2C1=O (centres unmarked)	-2.28%
COc1ccc(N(CC(=O)Nc2ccc(C)c(C)c2)S(C)(=O)=O)c(OC)c1	-1.22%
O=c1sc2ccccc2n1CN1CCCCC1	-3.15%
CCOC(=O)C1=C(C)N=c2s/c(=C/c3ccc(Cl)cc3)c(=O)n2C1c1cccs1 (centres unmarked)	-2.27%
O=C(Nc1ccccc1)c1ccc(CSc2ncccn2)cc1	-4.66%

Compound	% Inhibition @ 10 uM
Cc1ccc2nc(NC(=O)C3CCCN3S(=O)(=O)c3cccc4cccnc34)sc2c1 (centres unmarked)	0.981%
CC(=O)c1ccc(NC(=O)Nc2ccccc2)cc1	-2.66%
N#Cc1ccccc1Sc1ccccc1C(=O)Nc1ccc(Br)cn1	5.76%
COC(=O)C1=C(C)N=C(C)/C(=C(/O)OC)C1c1cn(-c2ccccc2)nc1-c1ccc(F)cc1 (centres unmarked)	-0.178%
CCOc1ccccc1-c1nc(-c2ccncc2)no1	0.032%
COc1ccc(N(CC(=O)N2CCN(c3ccccc3OC)CC2)S(C)(=O)=O)cc1Cl	1.84%
O=C1C2C3C=CC(CC3)C2C(=O)N1c1ccc(Cl)cc1 (centres unmarked)	3.65%
Cc1nc2ccc(C(=O)O)cc2c(O)c1CC=C(Cl)Cl	3.92%
N#C/C(C1=NCCCCC1)=C(/O)c1ccccc1	2.38% and -1.69%
CN(C)c1ccc(CN2CCc3ccccc3C2)cc1	3.25%
Cc1ccc(Cl)cc1-n1c(C)cc(/C=C2/C(=N)N3C=CSC3=NC2=O)c1C	-2.98%
Cc1ccc(-c2ccc(C3C(C#N)=C(N)Oc4[nH]nc(C)c43)o2)cc1 (centres unmarked)	8.62%
CC1CC(C)CN(CCCNC(=O)C2CCCN(c3nnc(N4CCCC4=O)s3)C2)C1 (centres unmarked)	45.2%
Cc1sc2ncn(CC(=O)N(C)C3CCCCC3)c(=O)c2c1S(=O)(=O)N1CCN(C)CC1	1.83%
COc1ccc(C(=O)CSc2nc(C)cc(C)c2C#N)cc1OC	-3.77%
CCCCOc1ccc(C(=O)Nc2nc(-c3ccc(OC)cc3)cs2)cc1	-0.615%
Cc1ccc(C(=O)c2sc3nc(-c4cccnc4)ccc3c2N)c(C)c1	2.23%
Cc1cc(C)nc(NC(=O)NS(=O)(=O)N2CCOCC2)n1	-4.01%
C=CCn1c(SCC(=O)Nc2nc(-c3ccccc3)ns2)nc2sc3c(c2c1=O)CCC3	4.85%
CCOc1ccc2ncc(S(=O)(=O)c3ccccc3)c(N3CCN(C)CC3)c2c1	-6.07%
C=CCN1C(=O)S/C(=C/C=C/c2ccc(N(C)C)cc2)C1=O	-0.402%
COc1ccc(OC)c(NC(=O)CN(c2cccc(Cl)c2)S(=O)(=O)c2ccccc2)c1	2.45%
O=C(O)c1ccc2c(c1)C1C=CCC1C(C1CC=CCC1)N2 (centres unmarked)	-3.44%
CC1(C)CC(=O)C2=C(C1)OC(N)=C(C#N)C2c1ccccc1C(F)(F)F (centres unmarked)	-2.46%
CS(=O)(=O)N(Cc1ccc(Cl)cc1)c1ccc(C(=O)Nc2ccc(C(N)=O)cc2)cc1	5.12%

Compound	% Inhibition @ 10 uM
COC(=O)C1=C(C)N(Cc2ccco2)C(=O)/C1=C\c1cc(C)n(-c2ccc(C)c(C)c2)c1C	8.07%
CC(C)c1ccc(CNC(=O)C(=O)NCC2CCCO2)cc1 (centres unmarked)	5.52%
O=c1nc2s/c(=C/c3ccccc3Cl)c(=O)n2nc1Cc1ccccc1	7.93%
Cc1ccc(CNCCCN2CCOCC2)cc1	-1.74%
O=C(Cn1cnc2c(oc3ccccc32)c1=O)NC1CCCC1	-1.48%
CC(C)C[C@H](NC(=O)C1CCNCC1)C(=O)N[C@@H](CCc1ccccc1)C(=O)CO	-5.64%
CCOC(=O)c1[nH]c2c(c1-c1ccccc1)C(=O)CC(c1cccs1)C2 (centres unmarked)	1.16%
O=C1c2cccc3cccc(c23)C(=O)N1CC1CCN(CC(O)COCc2ccccc2)CC1 (centres unmarked)	-6.07%
O=c1c(N2CCCCC2)coc2ccccc12	-4.21%
Cc1ccc(-c2cc(C(=O)N3CCOCC3)c3ccccc3n2)c(C)c1	1.03%
N#CC1=C(SCC(=O)NCc2ccccc2Cl)NC(=O)CC1c1ccccc1F (centres unmarked)	-2.8%
Cc1ccc(C(=O)Nc2ccc(NC(=O)c3ccccc3)cc2)cc1S(=O)(=O)N1CCOCC1	9.02%
Cc1ccccc1CNC(=O)c1ccco1	-6.02%
Cc1ccc2c(=O)cc(C(=O)N(Cc3ccccc3)Cc3ccco3)oc2c1	-5.08%
Cc1c2cnn(CC(=O)N3CCN(C)CC3)c(=O)c2c(C)n1Cc1ccc(F)cc1	1.22%
Cc1ccc(-c2noc(CNc3cc(C)cc(C)c3)n2)cc1	1.86%
O=C1OC(COc2ccccc2)CN1c1ccc(Cl)c(Cl)c1 (centres unmarked)	6.31%
CCc1nnc(NC(=O)CSc2nnc(Cc3cccn3C)n2CCOC)s1	-1.84%
O=C(O)C1CCCN(c2c(O)nc3ccc(Cl)cc3c2-c2ccccc2)C1 (centres unmarked)	6.49%
O=C(O)c1ccc2c(c1)C1C=CCC1C(c1cccc3ccccc13)N2 (centres unmarked)	3.48%
CCOc1cc(C2C=C(c3ccc(C)cc3)Nc3ncnn32)ccc1OC(F)F (centres unmarked)	1.73%
CCCOc1ccccc1C(=O)N(Cc1sccc1C)C1CCS(=O)(=O)C1 (centres unmarked)	2.19%
N#Cc1cc2c(nc1SCc1ccccc1Cl)CCCC2=O	-2.16%
